Experimental data as given in the supplement of paper PMC10338343.
± gives the standard deviation. The entries are a selection whose mix differs from that of the whole data set.

System: MIWI (PIWIL1) piRISC loaded with L1MC piRNA (30 nt)
Assay: pre-steady-state target cleavage rate (min^-1); MIWI and MILI are mouse PIWI proteins and EfPiwi is from a freshwater sponge; tags in brackets are library labels; higher = faster piRNA-guided slicing of the target
Conditions: guide: L1MC piRNA 5'p-UAACUAAAUACUAUGCAAGCUGUAGGUCCU
How it was run: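 In HEPES–potassium acetate buffer at 33 °C, […] transcribed, DNA-blocked target RNA library was mixed with 1 nM active affinity-purified piRISC carrying one synthetic guide, with or without 500 nM GTSF1 partner protein, for 0–8 or 0–960 min. Uncleaved targets were sequenced and normalised to depth and to weakly complementary targets; three trials were pooled and k3 was capped at 0.0001 min^-1. The pre-steady-state cleavage rate followed from a burst-and-steady-state fit.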

[1] = auxiliary factor: 500 nM mouse GTSF1
[2] = auxiliary factor: none (no GTSF1)
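Note: 1 nM active piRISC with 0.1 nM target library at 33 °C single turnover.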

UCCUGGAUCAGCUUGCAUAUUAUUUAGUUA was tested, and the “pre-steady-state target cleavage rate” value [1] was 1.22 ± 0.058 and the “pre-steady-state target cleavage rate” value [2] was 0.0383 ± 0.011.
UCCUCCUUCUGCUUGCAUAGUAUUUAGUUA was tested, and the “pre-steady-state target cleavage rate” value [1] was 1.18 ± 0.038 and the “pre-steady-state target cleavage rate” value [2] was 0.0546 ± 0.0091.
With UCCAGCUACAGCUUGCAUAGAAUUUAGUUA the “pre-steady-state target cleavage rate” value [1] was 0.377 ± 0.031 and the “pre-steady-state target cleavage rate” value [2] was 0.0262 ± 0.0063.
For UCCUCCUACUGCUUGCAUAGAAUUUAGUUA, the “pre-steady-state target cleavage rate” value [1] was 0.323 ± 0.021 and the “pre-steady-state target cleavage rate” value [2] was 0.0163 ± 0.0047.
With UCCACCUUCAGCUUGCAUAGUAUUUAGAAA the “pre-steady-state target cleavage rate” value [1] was 0.301 ± 0.048 and the “pre-steady-state target cleavage rate” value [2] was 0.00449 ± 0.0024.
In the case of UGCACCUACAGCUUGCAUAGUAUUUAGUAA, the “pre-steady-state target cleavage rate” value [1] is reported as 1.17 ± 0.11 and the “pre-steady-state target cleavage rate” value [2] is reported as 0.0465 ± 0.0097.
In the case of UCCUGCUACUCGUUGCAUAGUAUUUAGUAA, the “pre-steady-state target cleavage rate” value [1] is reported as 0.153 ± 0.016 and the “pre-steady-state target cleavage rate” value [2] is reported as 0.00287 ± 0.0029.
UCGACCUACAGCUAGCAUAGUUUUUAGUUA was tested, and the “pre-steady-state target cleavage rate” value [1] was 0.376 ± 0.029 and the “pre-steady-state target cleavage rate” value [2] was 0.0167 ± 0.004.
In the case of UCCUGGUACAGCAAGCAUAGUAUUUAGUUA, the “pre-steady-state target cleavage rate” value [1] is reported as 0.644 ± 0.042 and the “pre-steady-state target cleavage rate” value [2] is reported as 0.00321 ± 0.0015.
For UCCACCUACAGCUUGCUAUGUAUUUAGUUA, the “pre-steady-state target cleavage rate” value [1] was 0.132 ± 0.014 and the “pre-steady-state target cleavage rate” value [2] was 0.00491 ± 0.0018.
With UCGACCUACUCCUUGCAUAGUAUUUAGUUA the “pre-steady-state target cleavage rate” value [1] was 1.18 ± 0.039 and the “pre-steady-state target cleavage rate” value [2] was 0.0454 ± 0.0069.
In the case of UGGACCUACAGCUUGCAUAGUAUUCUAGUUA, the “pre-steady-state target cleavage rate” value [1] is reported as 0.571 ± 0.069 and the “pre-steady-state target cleavage rate” value [2] is reported as 0.0433 ± 0.011.
With UCCACCUUCACCUUGCAUAGUAUUUAGUUA the “pre-steady-state target cleavage rate” value [1] was 0.741 ± 0.057 and the “pre-steady-state target cleavage rate” value [2] was 0.049 ± 0.0088.
For AGGACCUACAGCUUGCAUAGUAUUAAGAAA, the “pre-steady-state target cleavage rate” value [1] was 0.383 ± 0.055 and the “pre-steady-state target cleavage rate” value [2] was 0.00355 ± 0.0033.
With UCCUGGAUGAGCUUGCAUAGUAAUUUAGUUA the “pre-steady-state target cleavage rate” value [1] was 0.045 ± 0.0059 and the “pre-steady-state target cleavage rate” value [2] was 0.00926 ± 0.0016.
For UCGACCUACAGCUUGCAAAGUAUUUAGAUA, the “pre-steady-state target cleavage rate” value [1] was 0.544 ± 0.031 and the “pre-steady-state target cleavage rate” value [2] was 0.0179 ± 0.0044.
UCCUCCUACAGCUUGGAUUGUAUUUAGUUA was tested, and the “pre-steady-state target cleavage rate” value [1] was 0.396 ± 0.032 and the “pre-steady-state target cleavage rate” value [2] was 0.011 ± 0.0027.
In the case of UCCUGCUACAGAUUGCAUAGUAUUUAGUUA, the “pre-steady-state target cleavage rate” value [1] is reported as 1.18 ± 0.06 and the “pre-steady-state target cleavage rate” value [2] is reported as 0.0188 ± 0.0035.
In the case of UCCUCCUACAGCUUGCAUAGUAUUUUGUUA, the “pre-steady-state target cleavage rate” value [1] is reported as 0.728 ± 0.034 and the “pre-steady-state target cleavage rate” value [2] is reported as 0.0323 ± 0.0071.
For UCCACCUACAGCAUGCAUACUAUUUAGUUA, the “pre-steady-state target cleavage rate” value [1] was 0.365 ± 0.029 and the “pre-steady-state target cleavage rate” value [2] was 0.0128 ± 0.0025.
UCCUGGAUGUGACUUGCAUAGUAUUUAGUUA was tested, and the “pre-steady-state target cleavage rate” value [1] was 0.389 ± 0.038 and the “pre-steady-state target cleavage rate” value [2] was 0.03 ± 0.0086.
For UCCUCCUACAGCUUUGCAUAGUAUUUAGUUA, the “pre-steady-state target cleavage rate” value [1] was 1.08 ± 0.033 and the “pre-steady-state target cleavage rate” value [2] was 0.0172 ± 0.0036.
With UCCUCCUACAGCUUGCAUAGUAUUUAGUAA the “pre-steady-state target cleavage rate” value [1] was 0.763 ± 0.047 and the “pre-steady-state target cleavage rate” value [2] was 0.0421 ± 0.011.
In the case of UCGAGCUACAGCUUGCAUAGUAUUUACUUA, the “pre-steady-state target cleavage rate” value [1] is reported as 0.399 ± 0.042 and the “pre-steady-state target cleavage rate” value [2] is reported as 0.0462 ± 0.0084.
AGGACCUACACCUUGCAUUGUAUUUAGUUA was tested, and the “pre-steady-state target cleavage rate” value [1] was 0.729 ± 0.022 and the “pre-steady-state target cleavage rate” value [2] was 0.0385 ± 0.0073.
With UCCUGCUACAGCUUGCAUAGAAUUUAGUAA the “pre-steady-state target cleavage rate” value [1] was 0.366 ± 0.051 and the “pre-steady-state target cleavage rate” value [2] was 0.0151 ± 0.005.
In the case of UCCUGGUACAGGUUGCAUAGUUUUUAGUUA, the “pre-steady-state target cleavage rate” value [1] is reported as 0.153 ± 0.028 and the “pre-steady-state target cleavage rate” value [2] is reported as 0.0167 ± 0.0069.
In the case of AGGACCUACAGGUUGCUUAGUAUUUAGUUA, the “pre-steady-state target cleavage rate” value [1] is reported as 1.07 ± 0.043 and the “pre-steady-state target cleavage rate” value [2] is reported as 0.0215 ± 0.0041.
For UCCUGCUACCAGCUUGCAUAGUAUUUAGUUA, the “pre-steady-state target cleavage rate” value [1] was 0.735 ± 0.051 and the “pre-steady-state target cleavage rate” value [2] was 0.0424 ± 0.0096.
With UCCACGCUACAGCUUGCAUAGUAUUUAGUUA the “pre-steady-state target cleavage rate” value [1] was 0.691 ± 0.045 and the “pre-steady-state target cleavage rate” value [2] was 0.0444 ± 0.0072.
UCCUGGAUGAGCUUGCAUAGUUUUUAGUAA was tested, and the “pre-steady-state target cleavage rate” value [1] was 0.0897 ± 0.018 and the “pre-steady-state target cleavage rate” value [2] was 0.0145 ± 0.0052.
With UCCUGGUACAGGUAGCAUAGUAUUUAGUUA the “pre-steady-state target cleavage rate” value [1] was 0.351 ± 0.026 and the “pre-steady-state target cleavage rate” value [2] was 0.00326 ± 0.0025.
For UCGACCUACAGCUUGCAUUGUAUUUUGUUA, the “pre-steady-state target cleavage rate” value [1] was 0.665 ± 0.031 and the “pre-steady-state target cleavage rate” value [2] was 0.0194 ± 0.0048.
For UCCUCCUACUGCUUGCAUAGUAUUUACAAA, the “pre-steady-state target cleavage rate” value [1] was 0.128 ± 0.016 and the “pre-steady-state target cleavage rate” value [2] was 0.00353 ± 0.0017.
With AGGACCUACAGCUGCAUAGUAUUUAGUUA the “pre-steady-state target cleavage rate” value [1] was 1.15 ± 0.068 and the “pre-steady-state target cleavage rate” value [2] was 0.0107 ± 0.0029.
In the case of UCCUGGAAGAGCUUGCAUAGUAUUUAGAUA, the “pre-steady-state target cleavage rate” value [1] is reported as 0.41 ± 0.046 and the “pre-steady-state target cleavage rate” value [2] is reported as 0.0195 ± 0.0054.
UCCUGCUACAGGUUGCAUACUAUUUAGUUA was tested, and the “pre-steady-state target cleavage rate” value [1] was 0.255 ± 0.026 and the “pre-steady-state target cleavage rate” value [2] was 0.0186 ± 0.0041.
For UCCUCCUACAGGUUGCAUAGAAUUUAGUUA, the “pre-steady-state target cleavage rate” value [1] was 0.316 ± 0.03 and the “pre-steady-state target cleavage rate” value [2] was 0.0101 ± 0.0033.
For UCCUGGAUGUCCUUGCAUAGUAUUUAGAUA, the “pre-steady-state target cleavage rate” value [1] was 0.0681 ± 0.017 and the “pre-steady-state target cleavage rate” value [2] was 0.00492 ± 0.0024.
With UGCUCCUACAGCUUGCAUAGUAUUUAGUUA the “pre-steady-state target cleavage rate” value [1] was 1.33 ± 0.047 and the “pre-steady-state target cleavage rate” value [2] was 0.0726 ± 0.012.
UCCUGGAUCAGCUUGCAUAGUAUUUCAGUUA was tested, and the “pre-steady-state target cleavage rate” value [1] was 0.49 ± 0.06 and the “pre-steady-state target cleavage rate” value [2] was 0.00928 ± 0.0025.
In the case of UGGACCUACAGCUAUGCAUAGUAUUUAGUUA, the “pre-steady-state target cleavage rate” value [1] is reported as 1.24 ± 0.11 and the “pre-steady-state target cleavage rate” value [2] is reported as 0.0371 ± 0.0083.
With UCCUGGAACAGCAUGCAUAGUAUUUAGAAA the “pre-steady-state target cleavage rate” value [1] was 0.398 ± 0.054 and the “pre-steady-state target cleavage rate” value [2] was 0.00322 ± 0.0031.
UCCUGGAUGACCUUGCAUAGUAUUUAGUAA was tested, and the “pre-steady-state target cleavage rate” value [1] was 0.125 ± 0.021 and the “pre-steady-state target cleavage rate” value [2] was 0.00482 ± 0.0019.
UCGAGGAACAGCUUGCAUAGUAUUUAGAAA was tested, and the “pre-steady-state target cleavage rate” value [1] was 0.572 ± 0.059 and the “pre-steady-state target cleavage rate” value [2] was 0.00692 ± 0.0027.
UCCUGGAUGUGCUUGCAUAGUAAUUAGUAA was tested, and the “pre-steady-state target cleavage rate” value [1] was 0.03 ± 0.0095 and the “pre-steady-state target cleavage rate” value [2] was 0.0071 ± 0.0027.
In the case of UCCUGGAUGUCCUUGCAUAGUAUUUAGUAA, the “pre-steady-state target cleavage rate” value [1] is reported as 0.0673 ± 0.013 and the “pre-steady-state target cleavage rate” value [2] is reported as 0.00569 ± 0.0017.
With UCCUGGAACAGCUUGCAUAGUAUUUAGUCA the “pre-steady-state target cleavage rate” value [1] was 0.522 ± 0.038 and the “pre-steady-state target cleavage rate” value [2] was 0.0457 ± 0.0097.
For UCGACCUACAGCUUGCAAUGUAUUUAGUUA, the “pre-steady-state target cleavage rate” value [1] was 0.54 ± 0.035 and the “pre-steady-state target cleavage rate” value [2] was 0.0055 ± 0.002.
In the case of UCCUCCUUCAGCUUGCAUAGUUUUUAGUUA, the “pre-steady-state target cleavage rate” value [1] is reported as 0.377 ± 0.021 and the “pre-steady-state target cleavage rate” value [2] is reported as 0.0263 ± 0.006.
AGGACCUUGAGCUUGCAUAGUAUUUAGUUA was tested, and the “pre-steady-state target cleavage rate” value [1] was 1.18 ± 0.081 and the “pre-steady-state target cleavage rate” value [2] was 0.0761 ± 0.016.
With UCCUGCUACAACUUGCAUAGUAUUUAGUUA the “pre-steady-state target cleavage rate” value [1] was 0.679 ± 0.044 and the “pre-steady-state target cleavage rate” value [2] was 0.0522 ± 0.0072.
In the case of UGGACCUACAGCUUGCAUAGUAUAAUGUUA, the “pre-steady-state target cleavage rate” value [1] is reported as 0.347 ± 0.034 and the “pre-steady-state target cleavage rate” value [2] is reported as 0.0246 ± 0.0048.
In the case of UGGACCUACAGCUUGCAUAGUAUUUAGUAUA, the “pre-steady-state target cleavage rate” value [1] is reported as 1 ± 0.078 and the “pre-steady-state target cleavage rate” value [2] is reported as 0.039 ± 0.0081.
In the case of UCGACCUACAGCUUGCAUAGUAUAAUGUAA, the “pre-steady-state target cleavage rate” value [1] is reported as 0.205 ± 0.031 and the “pre-steady-state target cleavage rate” value [2] is reported as 0.00301 ± 0.0027.
With UCCACCUUCAGCUUGCAUAGUAUAUAGUUA the “pre-steady-state target cleavage rate” value [1] was 0.569 ± 0.051 and the “pre-steady-state target cleavage rate” value [2] was 0.0216 ± 0.0061.
UGGACCUACAGGUUGCAUACUAUUUAGUUA was tested, and the “pre-steady-state target cleavage rate” value [1] was 0.196 ± 0.018 and the “pre-steady-state target cleavage rate” value [2] was 0.0212 ± 0.004.
In the case of UCCUGGAACAGCUAGCAUUGUAUUUAGUUA, the “pre-steady-state target cleavage rate” value [1] is reported as 0.489 ± 0.022 and the “pre-steady-state target cleavage rate” value [2] is reported as 0.0104 ± 0.0037.
UCGACCAACAGCUUGCAUAGAAUUUAGUUA was tested, and the “pre-steady-state target cleavage rate” value [1] was 0.402 ± 0.029 and the “pre-steady-state target cleavage rate” value [2] was 0.024 ± 0.0058.
UCCUGGUACAGCUUGCAUAGGAUUUAGUUA was tested, and the “pre-steady-state target cleavage rate” value [1] was 0.0182 ± 0.0045 and the “pre-steady-state target cleavage rate” value [2] was 0.0083 ± 0.0024.
